The list shows a part of the results.

The target in the assay is T1, OsWOX13 (Oryza sativa, UniProt Q5QMM3 1-267).
T1 sequence: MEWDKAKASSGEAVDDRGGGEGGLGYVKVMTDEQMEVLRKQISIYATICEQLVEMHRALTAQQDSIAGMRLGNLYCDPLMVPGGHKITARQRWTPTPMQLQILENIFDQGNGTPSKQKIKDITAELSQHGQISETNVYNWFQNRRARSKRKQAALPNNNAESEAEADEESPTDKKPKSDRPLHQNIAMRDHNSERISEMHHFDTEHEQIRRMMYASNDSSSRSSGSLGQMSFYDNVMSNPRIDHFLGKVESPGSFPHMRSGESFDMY
Description: protein-binding microarray (RPBM); PBS, 2% BSA, 51.3 ng/ul salmon testes DNA, 50 uM zinc acetate, 200 nM TF, 25 C, 1 h; high values mean tight binding. The conditions noted are these: protein: recombinant; tags: N-terminal polyhistidine and DsRed monomer fusion (pET32a); label: CyDye5-dUTP incorporated in the synthesized complementary strand; 3' TTTTT single-stranded linker to array surface; dsDNA, one strand shown. In outline:
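Transcription factors were each fused at the N-terminus to a polyhistidine tag plus DsRed and expressed in E. coli BL21-CodonPlus before Ni–NTA purification. Binding to a double-stranded custom Agilent array was carried out with 200 nM protein at 25 °C for 1 h in PBS, 2% BSA, salmon testes DNA and 50 µM zinc acetate. The binding signal is per-feature fluorescence intensity, in arbitrary units, on an Axon 4000B scanner.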
With “CATGATTCCATTTCCCCTCTAGTTTCTGTTCTGTTATTTACGGAGTCACCTAGTGCAG”, the binding signal was 4300 fluorescence intensity (a.u.).

Consider “GTCTTAATTAGAGATTTTATCCACCATTATTTCCATGGATCGGAGTCACCTAGTGCAG”, for which the binding signal was 40100 fluorescence intensity (a.u.).

Turning to “CTCTGGTTTGATATCAATTAATCTGTGTCTATGTGTCGCACGGAGTCACCTAGTGCAG”, the binding signal is 22700 fluorescence intensity (a.u.).

For the sequence “TATCTGCCATTAATCATTGACTTGTACATCTGTCTTGCTACGGAGTCACCTAGTGCAG”, the binding signal was 4400 fluorescence intensity (a.u.).

In the case of “AAAATTAAGATTAGTTTGCTCATTTAAAATGACAAGAAACCGGAGTCACCTAGTGCAG”, the binding signal is 5540 fluorescence intensity (a.u.).

In the case of “ATTCCTTGATTTGTAACGTTCTTCTTGCATCTATTCTTCACGGAGTCACCTAGTGCAG”, the binding signal is 14400 fluorescence intensity (a.u.).

As for “GTGATTGTGTGAATACGCGTTAAAGATGATTCCTTTATCGCGGAGTCACCTAGTGCAG”, the binding signal is 4230 fluorescence intensity (a.u.).

Turning to “TCCCATTAATTAATTCGCTCCATTCCTGCACAATTAAAGTCGGAGTCACCTAGTGCAG”, the binding signal was 38200 fluorescence intensity (a.u.).

For “AAGAAAATAATTGATATAACAAGGAAGCATGGGATAGCTACGGAGTCACCTAGTGCAG”, the binding signal is 25500 fluorescence intensity (a.u.).

For “TACATATGTGAACATTAATCAATCTTTGGTACTATACGTACGGAGTCACCTAGTGCAG”, the binding signal was 3600 fluorescence intensity (a.u.).

For “ACGGCGTTATTTGATTGGATTGTATTGGATTTAACCTGGACGGAGTCACCTAGTGCAG”, the binding signal is 31100 fluorescence intensity (a.u.).

On to “TTTAATTTCAGATTTATTTCATTTTCCGTAAGACCAACTTCGGAGTCACCTAGTGCAG”, for which the binding signal is 4160 fluorescence intensity (a.u.).

As to “CTGCATTTTAGAATGATTTATTAAATCTCAAAAGTTTCAACGGAGTCACCTAGTGCAG”, the binding signal is 4640 fluorescence intensity (a.u.).

“GAAATTTTCTTGTTCTGATTTGTGATTCGGACTTCTGCAGCGGAGTCACCTAGTGCAG”: the binding signal was 10200 fluorescence intensity (a.u.).

As to “AACTAATTTAATTAAGCTCAAACGCATGCATGCTACTGTTCGGAGTCACCTAGTGCAG”, the binding signal was 34100 fluorescence intensity (a.u.).

As for “TAAAATAAATTTATTTAAAAGTTTATATATCTAATGTTTACGGAGTCACCTAGTGCAG”, the binding signal was 16500 fluorescence intensity (a.u.).

Take “TTTTGTGATTATCCATAAAATACTTATAGATACTAAAGTTCGGAGTCACCTAGTGCAG”: the binding signal is 10100 fluorescence intensity (a.u.).

Take “AATCGAGTTGATTTGATAATCTTTCACCAAGATAAGTTTCCGGAGTCACCTAGTGCAG”: the binding signal is 16500 fluorescence intensity (a.u.).

For the sequence “TGAGCACCAAGAATCAATCAATCGAGCAGAAATTTGATCTCGGAGTCACCTAGTGCAG”, the binding signal was 7100 fluorescence intensity (a.u.).

As to “TTAAATTGAACTGACCAAAATTATACAGTTGGATACTACTCGGAGTCACCTAGTGCAG”, the binding signal was 23700 fluorescence intensity (a.u.).

Regarding “GGTTGCTGATTGTATCCTTTACTACTAGATCTTGACTGAGCGGAGTCACCTAGTGCAG”, the binding signal is 16300 fluorescence intensity (a.u.).

Turning to “ACCAATTTATATGGCAAATGTGATCAATATAGACAGAATCCGGAGTCACCTAGTGCAG”, the binding signal was 3670 fluorescence intensity (a.u.).

For the sequence “TGACATAAAATAAACTGTAATTTATTTGTTTCTCTAGATTCGGAGTCACCTAGTGCAG”, the binding signal was 5760 fluorescence intensity (a.u.).

As for “AGGTTGATTTTCTCATCAATAGTTTCCTATTTATGAATTACGGAGTCACCTAGTGCAG”, the binding signal was 12400 fluorescence intensity (a.u.).

“TCTAATTTCTACACTGTCCTTTAGACTATTCAGTATACATCGGAGTCACCTAGTGCAG”: the binding signal is 3700 fluorescence intensity (a.u.).

With “TAACTCACCATCATCTCAATTAATTCACGTACGACGCATTCGGAGTCACCTAGTGCAG”, the binding signal is 3460 fluorescence intensity (a.u.).

“TTCAATTTGAATGGATATTTAATGCCTTAAATTATCCTGCCGGAGTCACCTAGTGCAG”: the binding signal was 9150 fluorescence intensity (a.u.).

Regarding “GAGCAATTAGGCTTAAAAGATTCGTCTCGCAAATTAGTCGCGGAGTCACCTAGTGCAG”, the binding signal is 3540 fluorescence intensity (a.u.).

As for “AGAGTTGTATATTATGATAATTTGTTTAATGATCAGTCTACGGAGTCACCTAGTGCAG”, the binding signal is 5020 fluorescence intensity (a.u.).

As to “CGGCTGAATTGACTAAATTGGCTAATTTGGGACATCTCAACGGAGTCACCTAGTGCAG”, the binding signal is 33300 fluorescence intensity (a.u.).

On to “CAAATTAGATTGATTTGGTTAGATTGGATGTTTACCTTTACGGAGTCACCTAGTGCAG”, for which the binding signal is 50300 fluorescence intensity (a.u.).

Regarding “CACGTGATAGATTTCCTTAACGTACGCAGAAAATATCCGTCGGAGTCACCTAGTGCAG”, the binding signal is 22900 fluorescence intensity (a.u.).

For “CAAAATTAGCCATATCAAAACTTGCCAAAATTTGGCATTGCGGAGTCACCTAGTGCAG”, the binding signal was 6390 fluorescence intensity (a.u.).

Consider “AATGATAATTAAAGGTTACTTATAATTAGTGGGTACAAGTCGGAGTCACCTAGTGCAG”, for which the binding signal is 27100 fluorescence intensity (a.u.).

For “TATTCCTGCAATTTAAACTAAATAATTTTCGTGTGGTGTACGGAGTCACCTAGTGCAG”, the binding signal was 3320 fluorescence intensity (a.u.).

As for “ATCATAGTACTGATGCATGATTGAAACAGCTAAGAACTTGCGGAGTCACCTAGTGCAG”, the binding signal was 12700 fluorescence intensity (a.u.).

As to “CCATATAATTATGCTTGTTATTATGTGACAAAGAGCGGGTCGGAGTCACCTAGTGCAG”, the binding signal was 25400 fluorescence intensity (a.u.).

Turning to “GGAGAGCAATCAAGCGAAATTGACACGTGTCACGGCAGTGCGGAGTCACCTAGTGCAG”, the binding signal was 30300 fluorescence intensity (a.u.).

Regarding “TATAAATAAATTAACTTTTCAATTTTACAATAATTAAAACCGGAGTCACCTAGTGCAG”, the binding signal is 13900 fluorescence intensity (a.u.).

As to “CCCTGATTTCCACACGCACGCTTCCTAAACTGTTAAACGGCGGAGTCACCTAGTGCAG”, the binding signal is 18100 fluorescence intensity (a.u.).

Take “TCTTTGATTACAATGGAGTCCACCAAGGTCTCGGCGATGCCGGAGTCACCTAGTGCAG”: the binding signal is 25000 fluorescence intensity (a.u.).

Consider “CCTACGCACCAATCACAGCACATAATGTACAACATACCTACGGAGTCACCTAGTGCAG”, for which the binding signal was 17900 fluorescence intensity (a.u.).

The values are drawn from paper PMC7819943, “Rice protein-binding microarrays: a tool to detect cis-acting elements near promoter regions in rice”.
